{"source": "patent US12583836B2", "about": "(Anaxis Pharma Pty Ltd, priority 2020, dated 2026)", "key": {"[1]": {"tested_on": "U937 human histiocytic leukemia cell line", "assay": "Inhibition of TSQ induced necroptosis, 384 well plate format (CellTitre-Glo)", "conditions": "Homo sapiens, U-937; U937 cells, TSQ cocktail (TNF, Smac mimetic, Q-VD-OPh), CelltiterGlo; read-out: Inhibition of TSQ-induced necroptosis (IC50 cell-based assay)", "protocol": "[…] ASSAY: Screening compounds for inhibition of TSQ induced necroptosis, 384 well plate format.\nCell Line ID: U937 human histiocytic leukemia cell line.\nCell Concentration (cells/well): Final cell density is 20000 cells per well.\nCell growth medium: HT-RPMI medium+7.4% Fetal Bovine Serum (FBS). Cells are cultured in Corning 150 cm^2 tissue culture flasks with vented caps at 37° C./5% CO2.\nIncubation: Plates were incubated at 37° C./5% CO2 in a humidified incubator for 48 hours following addition of compounds and death stimuli (TSQ cocktail).\nCompound concentration: 36 μM starting concentration, 1:3 dilution, 10 point\nDMSO final concentration (% v/v): 0.3%.\nCompounds in TSQ cocktail (T: TNF; S: Smac mimetic; Q: Q-VD-OPh) and their final concentrations:\nhTNF-Fc (100 ng/ml)—produced by standard procedures as shown in Bossen et al., J Biol Chem, 2006, 281(20), 13964-13971.\nCompound A (500 nM)—Smac mimetic, Tetralogic and SYNthesis med chem\nQ-VD-OPh (10 μM)—MP Biomedicals\nThe cellular assay was carried out according to the following steps: • 1. Each well was prepared by sequential addition of: • a. DMSO (control; columns 1-2 and 23-24) or compound in DMSO—addition was performed using acoustic transfer of nl volumes of stock compound to give final test concentrations of 36, 12, 4, 1.3, 0.44, 0.148, 0.049, 0.016, 0.005 and 0.002 μM. All wells were backfilled with DMSO to a final total volume in the well of 100 nl. • b. Following compound/DMSO addition in step (a), 40 μL of cell suspension (5×10^5 cells/mL) was added to provide a final cell concentration of 20,000 cells per well, and • c. Following cell addition in step (b), 10 μL of 5×TSQ cocktail (except to positive controls; columns 1 and 23) was added to each well. • 2. After 48 hours, plate was removed from the 37° C. incubator and equilibrated to room temperature for 45 minutes. • 3. 15 μL of room temperature CellTitre-Glo2™ (Promega™) was added to each well. • 4. Shook plates for 2 minutes (˜600 rpm) and incubated at room temperature for 15 minutes to allow signal to stabilise. • 5. Read luminescence readout on a plate reader. Analysis:\nPercent viability was calculated for each compound according to equation (2):\n[formula] • wherein • RawData is the readout of any cell containing a compound of the invention • TA is the total activity provided by the luminescence readout from DMSO only wells (columns 2 and 24)=100% viability • NSA is the non-specific activity provided by DMSO+TSQ wells (columns 1 and 23)=0% viability\nCurve fitting: 10-point titration curves are fitted with the 4-parameter logistic nonlinear regression model and the IC50 reported is the inflection point of the curve.\nAnalysis: Data was loaded into Dotmatics™ and visualised using the Tibco® Spotfire™ software. 10 points titration curves were fitted with the 4-parameter logistic nonlinear regression model and the IC50 reported reflect the inflection point of the curve for curve fitting.\nAssay involving the TSQ cocktail (T: TNF; S: Smac mimetic; Q: Q-VD-OPh): TSQ treatment ensures that cells specifically undergo necroptotic cell death. TNF activates the TNF receptor, Smac mimetic directs the signal away from proinflammatory signaling and toward the RIP1/RIP3-mediated cell death pathways, and Q-VD-OPh ensures that the apoptotic response is blocked leaving only the programmed necrosis response. The compounds' activity (solution in DMSO) tested in this TSQ-induced assay was evaluated by determining the number of viable cells in culture by measuring the amount of ATP present as measured by CelltiterGlo."}, "[2]": {"tested_on": "U937 cells", "assay": "Counter screen: cell viability without the TSQ cocktail (CelltiterGlo)", "set-up": "species or system human", "conditions": "Homo sapiens, U-937, cell viability by CelltiterGlo, read-out: Off-target effect (IC50 cell-based assay)", "protocol": "Counter screen: In parallel, all compounds were tested for their ability to affect cell viability. The same U937 cells were treated with compound in DMSO without the TSQ cocktail. This counter screen enabled evaluation of off-target effects. In this case, cell viability was measured by CelltiterGlo."}}}
{"smiles": "CCS(=O)(=O)Nc1ccc(-c2n[nH]c(Nc3cnccn3)c2C(N)=O)cc1OCc1ccc(Cl)cc1", "note": "[Compound 42, 3-(3-((4-chlorobenzyl)oxy)-4-(ethylsulfonamido)phenyl)-5-(pyrazin-2-ylamino)-1H-pyrazole-4-carboxamide]", "values": [{"measurement": "IC50", "setting": "[1]", "result": "0.01 to 1", "unit": "µM"}, {"measurement": "IC50", "setting": "[2]", "result": "> 30", "unit": "µM"}]}
{"smiles": "CCS(=O)(=O)Nc1ccc(-c2n[nH]c(Nc3ccc(C(F)(F)F)cn3)c2C(N)=O)cc1", "note": "[Compound 93, 3-(4-(ethylsulfonamido)phenyl)-5-((5-(trifluoromethyl)pyridin-2-yl)amino)-1H-pyrazole-4-carboxamide]", "values": [{"measurement": "IC50", "setting": "[1]", "result": "1 to 30", "unit": "µM"}, {"measurement": "IC50", "setting": "[2]", "result": "> 30", "unit": "µM"}]}
{"smiles": "NC(=O)c1c(-c2ccc(NS(=O)(=O)CC(F)(F)F)cc2)n[nH]c1Nc1ccc(C(F)(F)F)cn1", "note": "[Compound 153, 3-(4-((2,2,2-trifluoroethyl)sulfonamido)phenyl)-5-((5-(trifluoromethyl)pyridine-2-yl)amino)-1H-pyrazole-4-carboxamide]", "values": [{"measurement": "IC50", "setting": "[1]", "result": "0.01 to 1", "unit": "µM"}, {"measurement": "IC50", "setting": "[2]", "result": "> 30", "unit": "µM"}]}
{"smiles": "C[C@H](Oc1cc(-c2n[nH]c(Nc3cccc(C(F)(F)F)n3)c2C(N)=O)ccc1NS(=O)(=O)CC(F)(F)F)c1ccc(F)cc1", "note": "[Compound 249, 3-{3-[(1S)-1-(4-fluorophenyl)ethoxy]-4-(2,2,2-trifluoroethane-sulfonamido)phenyl}-5-{[6-(trifluoromethyl)pyridin-2-yl]amino}-1H-pyrazole-4-carboxamide]", "values": [{"measurement": "IC50", "setting": "[1]", "result": "1 to 30", "unit": "µM"}, {"measurement": "IC50", "setting": "[2]", "result": "> 30", "unit": "µM"}]}
{"smiles": "NC(=O)c1c(-c2ccc(NS(=O)(=O)CC(F)(F)F)c(OCc3ccc(Cl)cn3)c2)n[nH]c1Nc1cnccn1", "note": "[Compound 262, 3-{3-[(5-chloropyridin-2-yl)methoxy]-4-(2,2,2-trifluoroethane-sulfonamido)phenyl}-5-[(pyrazin-2-yl)amino]-1H-pyrazole-4-carboxamide]", "values": [{"measurement": "IC50", "setting": "[1]", "result": "0.01 to 1", "unit": "µM"}, {"measurement": "IC50", "setting": "[2]", "result": "> 30", "unit": "µM"}]}
{"smiles": "NC(=O)c1c(-c2ccc(NS(=O)(=O)CC(F)(F)F)c(OC(c3ccc(F)cc3)C3CCC3)c2)n[nH]c1Nc1cnccn1", "note": "(stereo not shown) [Compound 266, 3-{3-[cyclobutyl(4-fluorophenyl)methoxy]-4-(2,2,2-trifluoroethanesulfonamido)phenyl}-5-[(pyrazin-2-yl)amino]-1H-pyrazole-4-carboxamide]", "values": [{"measurement": "IC50", "setting": "[1]", "result": "1 to 30", "unit": "µM"}, {"measurement": "IC50", "setting": "[2]", "result": "> 30", "unit": "µM"}]}
{"smiles": "C[C@H](Oc1cc(-c2n[nH]c(Nc3cc(C(F)F)on3)c2C(N)=O)ccc1NS(=O)(=O)C(F)F)c1ccc(F)cc1", "note": "[Compound 314, (S)-5-((5-(difluoromethyl)isoxazol-3-yl)amino)-3-(4-((difluoromethyl)sulfonamido)-3-(1-(4-fluorophenyl)ethoxy)phenyl)-1H-pyrazole-4-carboxamide]", "values": [{"measurement": "IC50", "setting": "[2]", "result": "> 30", "unit": "µM"}]}
